# Data as given in the RNAGym collection of RNA variant scans (doi:10.1073/pnas.2313332121).
# This sample is rich in variants without activity.
# B1: TPR 5TU (parent)
# chain: GGAUCUUCUCGAUCUAACAAAAAAGACAAAUCUGCCACAAAGCUUGAGAGCAUCUUCGGAUGCAGAGGCGGCAGCCUUCGGUGGCGCGAUAGCGCCAACGUUCUCAACUAUGACACGCAAAACGCGUGCUCCGUUGAAUGGAGUUUAUCAUG
# Variants of: B1
# Assay: polymerase ribozyme fitness, log enrichment relative to wild type (log ratio); higher = more active; in vitro selection for triplet polymerase activity
# In short: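 Mutant libraries for each subunit of a heterodimeric triplet polymerase ribozyme were made by PCR and then transcribed. Each library underwent one round of in vitro selection in triplicate: annealing with a biotinylated primer, the partner subunit and triplets, frozen incubation at −7 °C, gel excision of extended constructs, streptavidin-bead capture and RT-PCR. Input and output libraries were Illumina-sequenced, and only genotypes with ≥10 input reads and ≥1 read per output were kept. Fitness is the logarithm, base 2, of genotype enrichment over wild-type enrichment, computed from inverse-variance-weighted replicate averages.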
row,Variant,polymerase ribozyme fitness (log ratio)
1,GGAUCUUCUCGAUCUAACAAAAAAGCCAGAUCUGCCACAACGCUUGGGAGCAUCUUAGGAUGCAGAGGCGGCAGCCUUCGGUGGCGCGUUGGCGCCAACGUUCUAAAGUAUGACACGCAAAACGCGUGCUCCGUUGAAUGGAGUUUAUCAUG [A26C A29G A41C A47G C57A A89U A91G C105A C108G],≤ -4.2
2,GGAUCUUCUCGAUCUAACAAAAAAUACAAAUCUGCCACAAAGCUUGAGAGCAUCUUCGGAUGCAGAGGCGGCAGCCUUCGGUGGCGUGAUAGGGCCAACGUUCUCAACUAUGACACGCAAAACGCGUGCUCCGUUGAUUGGAGUUUAUCAUG [G25U C87U C93G A138U],≤ -4.2
3,GGAUCUUCUCGAUCUAACAAAAAAUACAAAUCUGCCACAAAGCUUGAGAGCAUCUUCGGAAGCAGAGGCGGCAGCCUUCGGUGGCGCGAUAGCGCCAACGUUCUCAACUAUGACACGCAAAACGCGUGCUCCGUUGAAUGGAGUUUAUCAUG [G25U U61A],-3.25
4,GGAUCUUCUCGAUCUAACAAAAAAUACAAAUCUGCCACAAAGCUUGAGAGCAUAUUCGGAUGCAGAGGCGGCAGCCUUCAGUGGCGCGAUAGCGCCAACGUUCUCAACUAUGACACGCAAAACGCGUGCUCCGUUGAAUGGAGUUUAUCAUG [G25U C54A G80A],-4.05
5,GGAUCUUCUCGAUCUAACAAAAAAGCCAAAUCUGCCACAACGCUUGAGAGCAUCUUCGGAUGCAGAGGCGGCAGCGUUCGGUGGGGCAAUAGCGCCAGCGUUCUCAACUAUGACACGCAAAACGCGUGCUCCGUUGAAUGGAGUUUAUCAUG [A26C A41C C76G C85G G88A A98G],≤ -4.2
6,GGAUCUUCUCGAUCUAACAAAAAAUACAAAUCUGCCACAAAGCUUGAGAGCAUCUUCGGAUGCAGAGGGGGCAGCCUUCGGUGGCGCGAUAGCGCCAACGUUCUCAACUAUGACACGCAAAACGCGUGCUCCGUUGAAUGGAGUUAAUCAUG [G25U C69G U146A],-4.05
7,GGAUCUUCUCGAUCUAACAAAAAAUACAAAUCUGCCACAAAGCUUGAGAGCAUCUUCGGAUGCAGAGGCGGCAGCCUUCGGUGGCGCGAUAGCGCCAACGUUCUGAACUAUGACACACAAAACGCGUGCUCCGUUGAGUGGAGUUUAUCAUG [G25U C105G G117A A138G],≤ -4.2
8,GGAUCUUCUCGAUCUAACAAAAAAGCUAAAUCUGCCACAAAGCUUGAGAGCAUCUUCGGAUGCAGAGGCGGCAGCCUUCGGUGGCGCGAUAGCGCCAACGUUCUCAACUAUGACACGCAAAACGCGUGCUCCGUUGAAUGGAGUUUAUCAUG [A26C C27U],-2.8
9,GGAUCUUCUCGAUCUAACAAAAAAGCCAAAUCUGUCACAAAGCUUGAGAGCAUCAUCGGAUGCAGAGGCGGCAGCUUUCGGUGGCGGGAUAUCGCCAGCGUUCUCAACUAUGACACGCAAAACGCGUGCUCCGUUGAAUGGAGUUUAUCAUG [A26C C35U U55A C76U C87G G92U A98G],-3.11
10,GGAUCUUCUCGAUCUAACAAAAAAGCCAAAUCUGCCACAAAGCUUGAGUGACUCUUCGGAUGCAGAGGCGGCCGCCUUCGGUGGCGCCAUUGCGCCAACGUUCUCAACUAUGACACGCAAAACGCGUGCUCCGUUGAAUGGAGUUUAUCAUG [A26C A49U C51A A52C A73C G88C A91U],≤ -4.2
11,GGAUCUUCUCGAUCUAACAAAAAAGCCAAAUCUGCAACAAAGCGUGAGAGCAUCUUCGGAUGCAGAGGCGGCUGCCUUCGGUGGCGCGAUAUCGCCAACGUUCUCAACUAUGACACGCAAAACGCGUGCUCCGUUGAAUGGAGUUUAUCAUG [A26C C36A U44G A73U G92U],≤ -4.2
12,GGAUCUUCUCGAUCUAACAAAAAAGCCAAAUCUGCCACAAAGCUUGAGAGCAUCUUCGGAUGCAGAGGCGGCAGCCUUCGGUGGCGCGAUGGCGCCAACGUUCUCAACUAUGACACGCAACACGCGUGCUCCGUUGAACGGAGUUUAUCAUG [A26C A91G A121C U139C],≤ -4.2
13,GGAUCUUCUCGAUCUAACAAAAAAGCCAAAUGUGCCACAAAGCUUGAGAGCAUCUGCGGAUGCAGAGGCGGCAGCCUUCGGUGGCGCGAUAGCGCCAAGGUUCUGAACUAUGACACGCAGAACGCGUGCUCCGUUGAAUGGAGUUUAUCAUG [A26C C32G U56G C99G C105G A120G],≤ -4.2
14,GGAUCUUCUCGAUCUAACAAAAAAGCCAAAUCUGCCACAAAGCUUGAGAGCUUCUUCGGAUGCAGAGGCGGCAGCCUUCGGUGGCGCGCUAGCGCCAACGUUCUCAACUAUGACACGCAAAACGCGUGCUCCGUUGAAUGGAGUUUAUCAUG [A26C A52U A89C],-3.85
15,GGAUCUUCUCGAUCUAACAAAAAAGCCACAUCUGCCACAAAGCUUGAGAGCAUCUUCGGAUGCAAAGGCGGCAGCCUUCGGUGGCGGGAUAGCGCCGACGUUCUCAACUAUGACACGCAAAACGCGUGCUCCGUUGAAUGGGGUUUAUCAUG [A26C A29C G65A C87G A97G A142G],≤ -4.2
16,GGAUCUUCUCGAUCUAACAAAAAAGCCAAAUCUGCCACAAAGCUUGAGAGCCUCUUCGGAUGCAGAGGCGGCAGCCUUCGGUGGCGCGAUAGAGCAAACGUUCUCAACUAUGACACGCAAUACGCGUGCUCUGCUGAAUGGAGUUAAUCAUG [A26C A52C C93A C96A A121U C132U U134C U146A],≤ -4.2
17,GGAUCUUCUCGAUCUAACAAAAAAUACAAAUCUGCCACAAAGCUUGAGAGCAUUUUCCGAUGCAGAGGCGGCAGCAUUCGGUGCCGCGAUAGCGCCAACGUUCUGAACUAUGACACGCAAAACGCGUGCUCCGUUGAAUGGAGUUUAUCAUG [G25U C54U G58C C76A G84C C105G],≤ -4.2
18,GGAUCUUCUCGAUCUAACAAAAAAGCCAUAUCUGCAACAAAACUUGAGAGCAUCUUCGGAAGCAGAGGCAGCCGCCUUCGGUGGCGCGAUAGCGCCAACGUUCUCAACUAUGACACGCAAAACGCGUGCUCCGUUGAAUGGAGUUUAUCAUG [A26C A29U C36A G42A U61A G70A A73C],≤ -4.2
19,GGAUCUUCUCGAUCUAACAAAAAAGCCAAAUUUGCCACAAAGCUUGAGAGCAUCUUCGGAUGCAGAGGCGGCAGCCUUCGGUGGGGCGAUAGGGCCAACGUUCUCAACUAUGACACGCAAAACGCGUGCUCCGGUGAAUGGAGUUUAUCAUG [A26C C32U C85G C93G U134G],≤ -4.2
